Experimental data reported in PMC10564622 (Free Radical Biology & Medicine, 2023).
One block for each binder: values may come before it.

What was measured:
Settings in all cases: both partners purified
[1] = target: T1, CoraFluor-1-labeled KEAP1FL (full-length, untagged KEAP1, residues 1–624) (human, UniProt Q14145, CoraFluor-1 by direct acylation with CoraFluor-1-Pfp (sites not given)); test: FRET or BRET; TR-FRET protein displacement assay: CoraFluor-1-labeled KEAP1FL + AF488-labeled CUL3NTD, unlabeled protein titrated (cmax 25 μM); assay buffer pH 7.5, 2 h, room temperature; KD from IC50 by Cheng-Prusoff
[2] = target: T1, CoraFluor-1-labeled KEAP1FL …; test: FRET or BRET; TR-FRET saturation binding: AF488-labeled CUL3NTD titrated (cmax 1000 nM) onto CoraFluor-1-labeled KEAP1 or KLHL11; 25 mM HEPES, 150 mM NaCl, 1 mM DTT, 0.5 mg/mL BSA, 0.005% TWEEN-20, pH 7.5; 2 h, room temperature; One Site – Total Binding model
[3] = target: T1, CoraFluor-1-labeled KEAP1FL …; test: FRET or BRET; TR-FRET dissociation: pre-equilibrated 20 nM CoraFluor-1-KEAP1 + 300 nM AF488-CUL3NTD, or 2 nM CoraFluor-1-KLHL11 + 45 nM AF488-CUL3NTD; 25 μM unlabeled KLHL11 added, read for 30 min; one-phase decay
[4] = target: T2, KEAP1_(BTB-BACK-Kelch) (KEAP1 residues 48–624) (human, UniProt Q14145); test: FRET or BRET; TR-FRET protein displacement assay: CoraFluor-1-labeled KEAP1FL + AF488-labeled CUL3NTD, unlabeled protein titrated (cmax 25 μM); assay buffer pH 7.5, 2 h, room temperature; KD from IC50 by Cheng-Prusoff
[5] = target: T2, KEAP1_(BTB-BACK-Kelch) (KEAP1 residues …); test: FRET or BRET; TR-FRET protein displacement assay: CoraFluor-1-labeled KLHL11_(BTB-BACK) + AF488-labeled CUL3NTD, unlabeled protein titrated (cmax 25 μM); assay buffer pH 7.5, 2 h, room temperature; KD from IC50 by Cheng-Prusoff
[6] = target: T1, CoraFluor-1-labeled KEAP1FL …; test: FRET or BRET; TR-FRET saturation binding of AF488-labeled CUL3NTD to CoraFluor-1-labeled KEAP1FL in the presence of 1 or 10 μM CDDO

Kd [1]: 129 nM
B1: CUL3NTD (CUL3 N-terminal domain, […], I342R L346D) (domain or fragment)
chain: not shown
notes: human CUL3, Uniprot […], […], vector pNIC-CTHF, with stabilising mutations I342R and L346D (split-n-express); source: E. coli BL21(DE3)-pRARE2, purified (nickel sepharose, TEV cleavage, SEC); not shown: His6, C-terminal, cleaved; FLAG, C-terminal, cleaved

Kd [2]: 222 nM | koff [3]: 0.00504 s⁻¹ | Kd [4]: 396 nM | Kd [5]: 798 nM | fold decrease of affinity with CDDO against no CDDO [6]: > 2 fold
B2: AF488-labeled CUL3NTD (domain or fragment)
chain: not shown
modifications: AF488 by direct acylation with AF488-Tfp (sites not given)
notes: human CUL3, Uniprot […], […], vector pNIC-CTHF, with stabilising mutations I342R and L346D; also called AF488-CUL3NTD; source: E. coli BL21(DE3)-pRARE2, purified (nickel sepharose, TEV cleavage, SEC), labeled with AF488-Tfp; not shown: His6, C-terminal, cleaved; FLAG, C-terminal, cleaved
